# The source gives no read counts; variants with many changes may rest on few reads.
# B1: CPEB3 Ribozyme (parent)
# chain: UAACAGGGGGCCACAGCAGAAGCGUUCACGUCGCAGCCCCUGUCAGAUUCUGGUGAAUCUGCGAAUUCUGCUGUAUAUCUC
# Variants of: B1
# Assay: self-cleavage, relative activity (ratio to wild type); higher = more cleavage; in vitro, sequencing
# Method in brief: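 Relative activity was defined as the cleaved/total read fraction for a variant divided by the same fraction for the unmutated ribozyme. CPEB3 self-cleaving ribozyme libraries were made by rounds of error-prone PCR, barcoded, and transcribed in vitro with T7 RNA polymerase for 5 hours at 37°C, and cleavage ran through transcription plus a 15 min DNase I step before EDTA. Illumina sequencing of template-switched reverse transcripts gave the reads, and DNA sequencing mapped the barcodes. Averages come from three batches, using variants with at least 5 reads.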
row,Variant,self-cleavage
1,CAACAGGGGGCCACAGCAGAAGCGUUCACGUCGCAGCCCCUGUCAGAUUCUGGUGAGUCUGCGAAUUCUGCUGUAUACCUC,0.64
2,CAACAGGGGGCCACAGCAGAAGCGUUCACGUCGCAGCCCCUGUCAGAUUCUGGUGAUUCUGCGUACUCUGCGGUAUAUCUC,0.25
3,CAACAGGGGGCCACAGCAGAAGCGUUCACGUCGCAGCCCCUGUCAGAUUCUGGUGAAUCUGCGGAUUCUGCUGUAUGUCUC,0.74
4,CAACAGGGGGCCACAGCAGAAGCGUUCACGUCGCAGCCCCUGUCAGAUUCUGGUGAAUCUGCGGAUUCCGCUGUAUAUCUC,0.33
5,CAACAGGGGGCCACAGCAGAAGCGUUCACGUCGCAGCCCCUGUCAGAUUCUGGUGAAUCUGCGGAUUCUGCCGUAUAUCUC,0.89
6,CAACAGGGGGCCACAGCAGAAGCGUUCACGUCGCAGCCCCUGUCAGAUUCUGGUGAAUCUGCGGAUUCUGCUGGAUAUCUC,1.22
7,CAACAGGGGGCCACAGCAGAAGCGUUCACGUCGCAGCCCCUGUCAGAUUCUGGUGAAUCUGCGGAUUCUGCUGUAUAUCAC,0.87
8,CAACAGGGGGCCACAGCAGAAGCGUUCACGUCGCAGCCCCUGUCAGAUUCUGGUGAAUCUGCGUAGUCUGCUGUAUAUCUC,0.19
9,CAAUAGGGGGCCGCAGCAGAAGCGUUCGCGUCGCAGCCCCUGUUAGAUUCUGGUGAAUCUGCGAAUUCUGCCGUAUAUCUC,0.11
10,CAAUAGGGGGCCACAGCAGAAGCGUUCACGUCGCAGCCCCUGUCAGAUUCUGGUGAAUCUGCAAAUUCUGCUGUAUAUCUC,0.98
11,CAAUAGGGGGCCACAGCAGAAGCGCUCACGUCGCAGCCCCUGUCAGAUACUGGUGAAUCUGCGAAUUCUGCUGUAUAUCUC,0.38
12,CAAUAGGGGGCCACAGCAGAAGCGUUCACGUCGCAGCCCCCGUCAGACUCUGGUGAAUCUGCGAAUUCUGCUGUAUAUCUC,0.46
13,CAACAGGGGGACACAGCAUAAGCGUUCACGUCGCAGCCCCUGUCAGAUUCGGGUGAGUCUGCGAAUUCUGCUGUACAUCUC,0.05
14,CAACAGGGGGGCACAGCAGAGGCGAUCACGUCGCAGCCCCUGUCAGAUUCCGGUGAGUCUGCGAAUCCUGCUGUAUAUCUC,0.39
15,CAACAGGGGGGCACAGCAGAAGCGUUCACGUCGCAGCCCCUGUCAGAUUCUGGUGAAUCAGCGAGUUCUGCUGUAUAUCUC,0.07
16,CAACAGGGGGUCACGGCAGAAGCGUUCACGUCGCAGCCCCUGUCAGACUCUGGUGUAUCUGCGAGUUCUGCUGUAUAUCUC,0.08
17,CAACAGGGGGUCACGGCAGAAGCGUUCACGUCGCAGCCCCUGUCAGAUCCUGGUGAAUCUGCGAGAUCUGCUGUAUAUCAC,0.09
18,CAACAGGGGGUCACAGCAGGAGCGUUCACGUCGCAGCCCCUGUCAGGUUCUGGUGGAUCUGCGAAUUCUGCUGUAUAUCUC,0.06
19,CAACAGGGGGUCACAGCAGAAGCGUUCACGUCGCUGCCCCAGUCAGAUUCUGGUGAAUCUGCGAAUUCUGCUGUAUAUCUC,0.24
20,CAACAGGGGGUCACAGCAGAAGCGUUCACGUCGCAGCCCCUGUCGGAUCCUGGUGAAUCUGCGAGCUCUGCUGUAUAUCUC,0.23
21,CAACAGGGGGUCACAGCAGAAGCGUUCACGUCGCAGCCCUCGUCAGAUUCUGGUGAAUCUGCGAAUUCUGCUGUAUAUCUC,0.31
22,CAACAGGGGGUCACAGCAGAAGCGGUCACGUCGCAGCCCCUGUCAGAUUCUGGUGAAUCUGCGAAUUCAGCUGUAUAUCUC,0.05
23,CAACAGGGGGCGACAGCAGAAGCGUUCACGUCGCAGCCCCUGUCAGAUUCUGGUGAAUCUGCGAAUUCUGCUGUAUUUCUC,0.23

row,Variant,self-cleavage
1,CAACAGGGGGCUACAGCGGAAGCGUUCACGUCGCAGCCCCUGUCAGAUCCUGGUGAAUCUGCGAAUUCUGCUGUAUAUCUC,0.21
2,CAACAGGGGGCUACAGCAGAAGCGUUCACGUCGCUGCCCCUGUCAGAUUCUGGUGAAUCUGCGAACUCUGCUGUAUAUCUC,0.1
3,CAACAGGGGGCUACAGCAGAAGCGUUCACGUCGCAGCCCCUGUCUGAUUCUAGUGCAUCUGCGAAUCCUGCUGUAUAUCUC,0.11
4,CAACAGGGGGCUACAGCAGAAGCAUUCACGUCGCAGCCCCUGUCAGAUUCUGGUGAAUCUGCGAAUUCUGCUGUAUAUCUC,0.05
5,CAACAGGGGGCCACAGUGGAAGCGUUCACGUCGCAGCCCCUGUCAGAUUCUGGCGAAUCUGCGAAUUCUGCUGUAUAUCUC,0.17
6,CAACAGGGGGCCACAGUAGAAGCGUUCACGUCGCAGCCCCUGUCAGAUUCUCGUGAAGCUGCUAAUUCUGCUGUAUAUCUC,0.23
7,CAACAGGGGGCCACAGUAGAAGCGUUCACGACGCAGCCCCUGUCAGGUUCUGGUGAAUCUGCGAAUUCUGCUGUAUGUCUC,0.24
8,CAACAGGGGGCCACAGCAGAAGGGUUCUCGUCGCAGCCCCUGUCAGGUUCUGGUGAAUCUGCGAAUUCUGCUGUAUAUCUC,0.21
9,CAACAGGGGGCCACAGCAGAAGUGUUCUCGUCGCAGCCCCUGUCAGAUACUGGUGUAUCUGCGAAUCCUGCUGUAUAUCUC,0.05
10,CAACAGGGGGCCACAGCAGAAGUGUUCACGUCGCAGCCCCUGUCGGAUUCUGGUGAAUCUGCGAAUUCUGCUGUAUAUCUC,0.3
11,CAACAGGGGGCCACAGCAGAAGUGUUCACGUCGCAGCCCCUGUCAGAUUCUGGUGUAUCUGCGAAUCCUGCUGUAUAUCUC,0.14
12,CAACAGGGGGCCACAGCAGAAGUGUUCACGACGCUGCCCCUGUCAGAUUCUGGUGAAUCUGCGAAUUCUGCUGUAUAUCUC,0.04
13,CAACAGGGGGCCACAGCAGAAGUGUUCACGUCGCAGCCCCUGUCAGAUUCUGGUGAAACUGCGAAUUCUGCAGUAUAUCUC,0.04
14,CAACAGGGGGCCACAGCAGAAGCGUUUACGUCGCAGCCCCUGACAGAUUCUGGUGAAUCUGCAAACACUGCUGUAUAUCUC,0.06
15,CAACAGGGGGCCACAGCAGAAGCGUUCAGGUCGCAGCCCCUGUCGGAUUCUGGUGAAUCUGCGAAUUCCGCUGUAUAUCUC,0.07
16,CAACAGGGGGCCACAGCAGAAGCGUUCAUGUCGCAGCCCCUGACAGAUUCUGGUGAAUCUGCGAAUUCUGCUGUAUAUCUC,0.66
17,CAACAGGGGGCCACAGCAGAAGCGUUCACGUUGCAGCCCAUGUCAGGUACUGGUGAAUAUGCGAAUUCUGCUGUACAUCUC,0.04
18,CAACAGGGGGCCACAGCAGAAGCGUUCACGUCGAAGCCCCAGUCAGAUUCAGGUGAAUCUGCGAAUUCUGCGGUAUAUCUC,0.05
19,CAACAGGGGGCCACAGCAGAAGCGUUCACGUCGAAGCCCCUGUCAGAUUCAGGUGAAUCUGCGAAUUCUGCUGUAUAUAUC,0.47
20,CAACAGGGGGCCACAGCAGAAGCGUUCACGUCGCAGACCCUGUCUGAUUCCGGUGAAUCUGCGAAUUCAGCUGUAUAUCUC,0.05
21,CAACAGGGGGCCACAGCAGAAGCGUUCACGUCGCAGGCCCUUCCAGAUUCUGGUGAAUCUGCGAAUUCUGCUGUAUAUCUC,0.1
22,CAACAGGGGGCCACAGCAGAAGCGUUCACGUCGCAGCACCGGUCAGGAUCUGGUGAAUCUGCGAAUUCUGCUGUAUAUCCC,0.08
23,CAACAGGGGGCCACAGCAGAAGCGUUCACGUCGCAGCACCUGUCAGACUCUGGUGGGUCUGCGAAUUCUGCUGUAUAUCUC,0.05

row,Variant,self-cleavage
1,CAACAGGGGGCCACAGCAGAAGCGUUCACGUCGCAGCCACUGUCAGAUUCUGGUGAACCUGCGAAUUCUGCUGUAUAUCUC,0.31
2,CAACAGGGGGCCACAGCAGAAGCGUUCACGUCGCAGCCCUUGUCAGAUUCUGGUGGAUCUGCGAAUUCUGCUGUAUAUCUC,0.54
3,CAACAGGGGGCCACAGCAGAAGCGUUCACGUCGCAGCCCCUGUAAGAUUCUGGUGAAUCUGCGAAUUCUGCUGUAUAUCUU,0.48
4,CAACAAGGGGCCACGGCAGAAGCGUUCACGUCGCAGCCCCUGUCAGAUUCUGGUGAAUCUGCGAAUUCUGCUGUAUAGCUC,0.06
5,CAACAAGGGGCCACAGCAGAAGCGUUCACGUCGCAGCCCCUGUCAGAUUCUGGUGGAUCUGCGAAUUCUGCUGUAUAUCUC,0.32
6,CAACAAGGGGCCACAGCAGAAGCGUUCACGUCGCAGCCCCUGUCAGAUUCUGGUGGAUCUGCGAAUUCUGCUGCGUAACUC,0.42
7,CAACAAGGGGCCACAGCAGAAGCGGUCACGUCGCAGCCCCUGUCGGAUUCUGGUGAAUCUGCGAAUUCUGCUGUAUAUCUC,0.33
8,CAACAAGGGGCCACAGCAGAAGCGUUCACGUCGCAGCCCCUGUCAGAUUCUGGUGAAUCUGCGAAUACUGCUGCAUAUCUC,0.42
9,CAACAUGGGGCCACAGCGGAAGCGUUCACGUCGCAGCCCCUGUCAGAUACUGGUGAAUCUGCGAAUUCUGCCGUAUAACUC,0.05
10,CAACAUGGGGCUACAGCAGAAGCGUUCACGUCGCAGCCCUCGUCAGAUUCUGGUGAAUCUGCGAAUUCUGCCUUAUAUCUC,0.86
11,CAACAGAGGGCCACGGCUGAAGCGUUCACGUCGUAGCCCCUGUCAGAUUCUGGUGAAUCUGCGGAUUCUGCUGGAUAUCUC,0.04
12,CAACAGAGGGCCACAGCAGAAGCGUUCACGUCGCUGCCCCUGUCAGAUUCUGGUGAAUCUGCGAAUUCUGCUGUAUAUCUC,0.15
13,CAACAGAGGGACACAGCAGAAGCGUUCACGUCGCAGCCCCUGUCAGAUCCUGGUGAAUCUGCGAAUUCUGCUGUAUAUCUC,0.06
14,CAACAGAGGGCCACAGCAGAAGAGUUCACGUCGCGGCCCCAGUCAGAUUAUGGUGAAUCUGCGAAUUCUGCUGUAUUUCUC,0.05
15,CAACAGCGGGCCACAGCAGUAGCGUUCACGUAGCGGCCCCUGUCAGAUUCAGGUGAAUCUGCGAACUCUGCUGUAUAUCUC,0.04
16,CAACAGCGGACCACAGCAGGAGCGUCCACGUCGCAGCCCCUGUCAGAUUCUGGUGAAUCUGCGAAUUCUGCUGUAUAUCUC,0.44
17,CAACAGCGGGCCACAGCAGAAGCGUCCACGUCGCAGCCCCUGUCAGAUUCUGGUGGAUCUGCGAAUUCUGCUGUAUAUCUC,0.04
18,CAACAGCGGGCCACAGCAGAAGCGUUCACGUCGCAGCCCCUGUCAGAUACUGGUGAAUCUGCGAAUUCUGCUGUAUAUCUC,0.38
19,CAACAGUGGGCCGCAGCAGAAGCGUUCUCGUCGCGGCCCCUGUCAGAUUCUGGUGGAUCUGCGAGUUCUGCUGUAUAUCUC,0.04
20,CAACAGUGGGCCACAGCGGAAGCGUUCACGUCGCAGCCCCUGUCAGAUUCAGGCGAAUCUGCGAAUACUGCCGUAUAUCUC,0.05
21,CAACAGUGGGCCACAGCAGAAGCGUUCCCGUCGCAGCCCCUGUCAGAUUCUGGUGAAUCUGCGAAUUCUGCUGUAUAUCUC,0.08
22,CAACAGUGGGCCACAGCAGAAGCGUCCACGUCGCAGCCCCUGUCAGAUUCUGGUGAAUCCGCGAAUUCUGCUGAAUAUCUC,0.25

# Source: the RNAGym collection of RNA variant scans (doi:10.1093/nar/gkz1192)
